Laboratory results from PubChem BioAssay AID624171 (National Center for Advancing Translational Sciences (NCATS), 2012).
The campaign covered roughly 410,000 compounds. About 1,200 (0.29%) were called active. The shares of active, inactive and inconclusive entries below differ from those in the screen. Calls follow the shape of the dose curve; as a rule, active = well fitted activation curve with a large enough effect; inconclusive = small, poorly fitted or top-dose-only effect; inactive = flat fitted curve, though single readings scatter. Potencies beside an inconclusive call are fits to weak or partial responses and may not hold up.

Test: qHTS of Nrf2 Activators; also: nearly all actives have a fitted effect of over 65% in size; as to activation: % of control where 0% means no effect
Conditions: AREc32 ARE-luciferase reporter (MCF7-derived line), luminescence, 24 h; activation: at 46.1 µM (top of the series)
How it was run: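 AREc32 cells carrying an ARE-driven firefly luciferase reporter were seeded at 1000 cells/well in OPTI-MEM with 5% FBS, then exposed to compound for 24 hr at 37 deg C. Luminescence was read with Steady-Glo after 30 min at RT.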
Potency is read from the fitted curve at half-maximal effect; tags tell the direction and shape of the fitted curve.

Row | SMILES | Potency | activation
1 | O=[N+]([O-])c1cccc(-c2nnc(-c3ccccc3)o2)c1 | inconclusive: 2.51 µM [activator, full curve, poor fit] | –
2 | NC(=O)C(C(=O)/C=C/c1ccc(Cl)cc1)=C1SCCS1 | active: 7.94 µM | –
3 | O=C(NCCCn1ccnc1)C1CCN(S(=O)(=O)c2cc([N+](=O)[O-])ccc2Cl)CC1 | inconclusive: 17.8 µM [activator, single point] | –
4 | NC(=O)c1c(NC(=O)c2ccccc2)sc2c1CCCC2 | inconclusive: 1.58 µM [activator, partial curve, poor fit] | –
5 | FC(F)(F)c1cc(-c2ccc(Cl)cc2)nc(NCc2cccnc2)n1 | – | inactive: 3.04%
6 | Cc1ccc(OCC(=O)Nc2ccc(S(=O)(=O)N(C)C3CCN(C)CC3)cc2)c(C)c1 | – | inactive: 2.13%
7 | Cc1ccc(C2=Nc3ccccc3NC(C)(c3ccc(C)o3)C2)o1 (configuration not stated) | inconclusive: 17.8 µM [activator, single point] | –
8 | CCN(C(=O)COC(=O)/C=C/c1cccc(Br)c1)C1CCS(=O)(=O)C1 (configuration not stated) | inconclusive: 17.8 µM [activator, single point] | –
9 | Cc1cc(NC(=O)COn2nnc3ccc(S(C)(=O)=O)cc32)ccc1Br | inconclusive: 17.8 µM [activator, single point] | –
10 | O=C1c2ccccc2C(=O)C1c1nccc2ccccc12 | inconclusive: 0.562 µM [activator, full curve, poor fit] | –
11 | O=C(Nc1nc2ccccc2[nH]1)c1ccccc1[N+](=O)[O-] | inconclusive: 11.2 µM [activator, partial curve] | –
12 | CCSc1sccc1C1C(C#N)=C(N)N(c2cccnc2)C2=C1C(=O)CCC2 (configuration not stated) | inconclusive: 17.8 µM [activator, single point] | –
13 | CCOC(=O)c1ccc2nc(NC(C)=O)sc2c1 | – | inactive: 2.35%
14 | O=C(CC(Nc1ccc(F)cc1)C(=O)O)c1ccccc1 (configuration not stated) | active: 20 µM | –
15 | CC(C)(C)NS(=O)(=O)c1cnc(Cl)c(Cl)c1 | inconclusive: 17.8 µM [activator, single point] | –
16 | Cc1ccc(S(=O)(=O)CCC(=O)Nc2nnc(-c3ccc(F)cc3)o2)cc1 | inconclusive: 22.4 µM [activator, single point] | –
17 | Cc1ccc(Cc2c(-c3ccco3)nc3ccc(Br)cn23)cc1 | inconclusive: 15.8 µM [activator, single point] | –
18 | Oc1ccc(-c2nccc(-c3cccs3)n2)cc1 | active: 10 µM | –
19 | CCCOCc1cc(CN2CCN(c3cccc(Cl)c3)CC2)c(O)c2ncccc12 | – | inactive: -1.69%
20 | COc1ccc([N+](=O)[O-])cc1NCc1ccco1 | active: 11.2 µM | –
21 | Cc1onc(-c2ccccc2)c1C(=O)OCC(=O)Nc1ccc2c(c1)OCO2 | – | inactive: -0.441%
22 | COc1ccccc1C(=O)Nc1ccccc1C(=O)N1CCCC1 | – | inactive: -0.271%
23 | Clc1nnc(N/N=C/c2ccccc2)c2ccccc12 | inconclusive: 3.55 µM [activator, partial curve, poor fit] | –
24 | CN(C)c1ccc(C(=O)OCC(=O)c2ccc[nH]2)cc1 | – | inactive: 1.28%

Row | SMILES | Potency | activation
25 | COc1ccc(C)c2sc(N(CCN(C)C)C(=O)/C=C/c3cccs3)nc12 | inconclusive: 20 µM [activator, single point] | –
26 | FC(F)(F)c1ccccc1NC(=S)N1CCN(Cc2ccc3c(c2)OCO3)CC1 | – | inactive: 0.405%
27 | CC1(C)S/C(=N/N=C/c2ccco2)NC1=O | inconclusive: 17.8 µM [activator, single point] | –
28 | c1csc(-c2nnc(N3CCCCCC3)c3ccccc23)c1 | active: 12.6 µM | –
29 | O=c1oc(/C=C/c2ccc([N+](=O)[O-])s2)nc2ccccc12 | inconclusive: 3.16 µM [activator, single point] | –
30 | Cn1nc(C(F)(F)F)c(C(=O)Nc2ccc(F)cc2F)c1Sc1cccc(Cl)c1 | – | inactive: -0.141%
31 | Cc1ccc(S(=O)(=O)c2cc(O)ccc2O)cc1C | inconclusive: 25.1 µM [activator, single point] | –
32 | NC(=O)c1cc([N+](=O)[O-])c(Cl)cc1NCc1ccccn1 | inconclusive: 15.8 µM [activator, partial curve, poor fit] | –
33 | CC(=O)Nc1ccc(S(=O)(=O)Nc2ccc(F)c([N+](=O)[O-])c2)cc1 | inconclusive: 28.2 µM [activator, partial curve, poor fit] | –
34 | Fc1cccc(Cc2c(-c3ccc(Cl)cc3)nc3c(Cl)cc(C(F)(F)F)cn23)c1 | – | inactive: 1.67%
35 | NC1=NC(=O)/C(=C\c2ccsc2)S1 | inconclusive: 17.8 µM [activator, single point] | –
36 | CCC(c1ccc(O)c(O)c1)C(CC)c1ccc(O)c(O)c1 (configuration not stated) | inconclusive: 25.1 µM [activator, single point] | –
37 | O=C(CCl)N=c1sccn1Cc1ccccc1Cl | inconclusive: 20 µM [activator, single point] | –
38 | COC(=O)/C(C#N)=C1/C=Cc2ccccc2N1 | inconclusive: 11.2 µM [activator, single point] | –
39 | Cc1cccc(NC(=O)CSc2nc3c([nH]c4ccccc43)c(=O)n2-c2ccc(F)cc2)c1C | – | inactive: -1.2%
40 | O=C(NCCN1CCCC1)C(c1ccccc1)c1ccccc1 | – | inactive: -0.102%
41 | Cc1sc2c(c1C)CN(Cc1ccncc1)CN2C(=O)c1ccco1 | inconclusive: 15.8 µM [activator, partial curve, poor fit] | –
42 | O=C(CCNc1ccc(Cc2ccncc2)cc1)c1ccc([N+](=O)[O-])cc1 | inconclusive: 17.8 µM [activator, single point] | –
43 | O=C(N/N=C1/C(=O)c2cccc3cccc1c23)c1ccc(Cl)cc1 | inconclusive: 2.51 µM [activator, full curve, poor fit] | –
44 | CC(=O)Nc1ccc(N=Nc2ccccc2)cc1[N+](=O)[O-] | active: 7.94 µM | –
45 | COc1ccc(CNC(=O)C/C(C)=N/NC(=O)C(c2ccccc2)c2ccccc2)cc1 | – | inactive: -0.209%
46 | CCOc1ccccc1NC(=S)NC(=O)c1ccco1 | inconclusive: 2.82 µM [activator, full curve, poor fit] | –
47 | CCCn1c(CC)nc([N+](=O)[O-])c1Sc1ccc(F)cc1 | inconclusive: 17.8 µM [activator, single point] | –
